Data reported in PubChem BioAssay AID1645887 (National Center for Advancing Translational Sciences (NCATS), 2021).
Where “and” joins values, the source holds several entries; their conditions need not be identical. Equal entries are not always repeated. Screen size: about 16,000 compounds; about 40 (0.2%) were called active. Not shown: some 1% with an inconclusive outcome. Calls follow the shape of the dose curve; as a rule, active = well fitted activation curve with a large enough effect; inconclusive = small, poorly fitted or top-dose-only effect, or another doubt; inactive = no such curve, though single readings can be large or run the other way. The list shows a part of the results.

target: Rap guanine nucleotide exchange factor 4 (Homo sapiens) (UniProt Q8WZA2); experiment: Validation qHTS for agonist of cAMP-regulated guanine nucleotide exchange factor 4 (EPAC2); settings: EPAC2 Rap1B BODIPY-GDP exchange, fluorescence; activation: hits give high values;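 also: exchange makes BODIPY-GDP fluorescence drop when released from Rap1B; series mostly up to about 150 µM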
Description: Principle Investigator: Xiaodong Cheng Ph.D.
The University of Texas Medical Branch, […], TX
In multi-cellular eukaryotic organisms, the effects of cAMP are transduced by two ubiquitously-expressed intracellular cAMP receptors, the classic protein kinase A/cAMP-dependent protein kinase (PKA/cAPK) and the more recently discovered exchange protein directly activated by cAMP/cAMP-regulated guanine nucleotide exchange factor (EPAC/cAMP-GEF). Both PKA and EPAC are ubiquitously expressed in all tissues, and an increase in intracellular cAMP levels will lead to the activation of both PKA and EPAC. Therefore, careful dissections of the individual role and relative contribution of EPAC and PKA within the overall cAMP signaling in various model systems are critical for further elucidating the mechanism of cAMP signaling. To date no EPAC-specific antagonists and agonist, as well as isoform-specific agonists have been reported, and developing EPAC-specific pharmacological probes to determine the physiological functions that EPAC play in the overall cAMP-mediated signaling remains a major challenge within the research field. Furthermore, identified regulators of EPAC may lead to new mechanism-based therapeutic strategies specifically targeting the EPAC / cAMP-signaling components as EPAC has been implicated to play important roles in major human pathological conditions such as diabetes, heart disease, and cancer.
This qHTS will be used to screen the Molecular Libraries Small Molecule Repository (MLSMR) as a concentration-titration series using the NCGC unique quantitative screening (qHTS) platform to find activators for EPAC1. In addition, this assay will also be used as a counterscreen for the EPAC2 qHTS. This fluorescent based assay is developed and validated for EPAC1 that measures exchange using EPAC effector Rap1 complex with BODIPY-GDP, a GDP analog with a tethered fluorophores. Activators are identified by monitoring the change in fluorescence signal as the exchanged free BODIPY-GDP has a reduced fluorescence compared to Rap1-bound BODIPY-GDP. Increase in signal (activation) is the desired outcome for the EPAC1 agonist while no activity in this assay is desired for the EPAC2 agonist counterscreen.
[1] de Rooij, J., Zwartkruis, F. J., Verheijen, M. H., Cool, R. H., Nijman, S. M., Wittinghofer, A., and Bos, J.L. (1998) Nature 396, 474-477.
Briefly, three uL of reagents (100 nM EPAC2, 250 nM RAP1B-BODIPY-GDP, 50 uM GDP) were dispensed into a 1536-well Greiner black solid-bottom medium binding assay plate. Controls and test compounds (23 nL) were transferred to the plate via a Kalypsys pin tool equipped with a 1536-pin array. The plates were centrifuged at 1,000 rpm for 15 seconds followed by 5 minute incubation at room temperature. The assay plates were read at 5 minute intervals for 30 minutes in the ViewLux plate reader using 480nm excitation and 540nm emission filters. The results were normalized to the agonist positive control of 6.5 mM cAMP.
% is scaled to controls: 0 for no effect and ±100 for the full control effect.

Chain of UniProt Q8WZA2 (Q8WZA2 whole entry, looked up): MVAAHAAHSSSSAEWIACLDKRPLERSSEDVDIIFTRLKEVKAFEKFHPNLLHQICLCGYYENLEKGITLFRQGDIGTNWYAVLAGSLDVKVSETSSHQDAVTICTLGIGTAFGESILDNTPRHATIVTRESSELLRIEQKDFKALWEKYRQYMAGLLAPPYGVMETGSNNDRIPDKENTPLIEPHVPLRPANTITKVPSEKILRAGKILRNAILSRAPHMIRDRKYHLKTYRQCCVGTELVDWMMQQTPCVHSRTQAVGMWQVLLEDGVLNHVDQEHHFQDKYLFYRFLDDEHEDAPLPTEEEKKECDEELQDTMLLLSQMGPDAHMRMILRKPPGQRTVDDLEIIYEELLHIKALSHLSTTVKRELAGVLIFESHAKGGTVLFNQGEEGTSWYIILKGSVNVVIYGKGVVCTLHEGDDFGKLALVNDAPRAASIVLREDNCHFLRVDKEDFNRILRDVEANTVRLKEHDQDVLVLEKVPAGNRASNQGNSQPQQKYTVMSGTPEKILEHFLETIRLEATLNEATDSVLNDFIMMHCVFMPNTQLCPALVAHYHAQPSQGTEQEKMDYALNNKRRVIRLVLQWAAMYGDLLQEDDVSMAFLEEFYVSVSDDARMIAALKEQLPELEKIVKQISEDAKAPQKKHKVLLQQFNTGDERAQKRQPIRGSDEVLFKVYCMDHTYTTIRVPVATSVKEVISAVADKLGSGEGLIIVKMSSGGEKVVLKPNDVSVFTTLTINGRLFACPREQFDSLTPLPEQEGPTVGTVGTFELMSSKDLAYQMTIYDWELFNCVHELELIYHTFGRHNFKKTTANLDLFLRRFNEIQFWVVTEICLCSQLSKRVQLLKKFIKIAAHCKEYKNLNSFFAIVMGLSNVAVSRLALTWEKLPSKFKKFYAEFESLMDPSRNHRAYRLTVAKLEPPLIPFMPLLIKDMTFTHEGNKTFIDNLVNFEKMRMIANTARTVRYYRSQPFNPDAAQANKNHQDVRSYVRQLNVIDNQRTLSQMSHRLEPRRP

activation, inactive:
COCCn1c(=O)c(-c2cccc(C#N)c2)nc2cnc(Nc3ccccc3)nc21 -1.21%, N#Cc1cccc(-c2cncnc2NCc2cccs2)c1 -3.99%, Cc1nc2ccc(CN(C)c3ccc(C(=O)N[C@@H](CCC(=O)O)C(=O)O)s3)cc2c(=O)[nH]1 -13.4% and -29.1%, Cc1ccc(CN2CCC(C3(c4ccccn4)NC(=O)N(CC4CCCO4)C3=O)CC2)cc1C (configuration not stated) -5.22%, Cc1cnc(CNc2ncnc3ccc(-c4cccc(NS(C)(=O)=O)c4)cc23)cn1 -1.14%, CC(=O)C[C@H]1c2cc(F)ccc2S(=O)(=O)N1c1ccc(N(C)C)cc1 -22.8%, CCCCCOc1ccc(C2SC(=O)NC2=O)cc1OCC (configuration not stated) -31.1%, COC(=O)/C(C)=C/CC12OC(C)(C)C3CC(C=C4C(=O)c5cc6c(c(CCC(C)(C)Cl)c5OC431)OC1(C)CCC(=C(C)C)C6C1)C2=O (configuration not stated) -12%, Cn1cccc1C(=O)N1CCC2(CC1)CCN(c1ncccn1)CC2 -15%, O=C(NC1CCCC1)c1cn(C2CCN(Cc3cccc4cccnc34)CC2)nn1 -0.657%, CO/N=C(\C(=O)N[C@@H]1C(=O)N2C(C(=O)O)=C(C[N+]3(C)CCCC3)CS[C@H]12)c1csc(N)n1 8.13%, CCOC(=O)[C@H](CCc1ccccc1)N[C@@H](C)C(=O)N1CCC[C@H]1C(=O)O -12.2%, COC(=O)c1ccccc1-c1cc(C)cc2c1OC(CNC(=O)c1cnc(C)cn1)C2 (configuration not stated) -3.74%, O=C1CC2(CCCC2)CC(=O)N1CCNCC1COc2ccccc2O1 (configuration not stated) -5.63%, CCCCOc1cc(C[C@@H]2CNC(=O)N2)ccc1OC -40.7%, Cc1cc(Cn2cnc3c2C[C@@H](C(=O)O)N(C(=O)C(c2ccccc2)c2ccccc2)C3)ccc1N(C)C -15.9%, NC[C@@H]1O[C@H](c2ccccc2)Cc2c1ccc(O)c2O 2.89% and -16.8%, COCCN(C)C(=O)c1cnn(-c2nccc(-c3cc(OC)ccc3OC)n2)c1C -5.86%, CN(C)C(=O)[C@@H]1C[C@@H](Sc2nc3ccccc3[nH]2)CN1Cc1ccc(Cl)cc1 -9.47%, Cn1nnnc1SCC1=C(C(=O)O)N2C(=O)[C@@H](NC(=O)[C@H](OC=O)c3ccccc3)[C@H]2SC1 -8.42%, COc1ccccc1CNc1ncncc1-c1ccc(C(=O)N(C)C)cc1 -0.138%, Cc1ccc2c(c1)CN(CCNC(=O)C(C)Oc1ccccc1)CC(C)O2 (configuration not stated) 1.72%, COC(=O)c1c(OCc2ccccn2)cc(=O)n2c1CCN(Cc1ccc3nsnc3c1)CC2 -7.89%, COc1cc(-c2cc(C)c3cccc(OC)c3n2)cc2c1OCCN(C(=O)CCn1nc(C)cc1C)C2 -16.6%, CCC1CN(Cc2cn[nH]c2-c2ccc(F)cc2)Cc2cc(OC)ccc2O1 (configuration not stated) -29.4%, CC(C)(C)NC[C@H](O)COc1cccc2[nH]c(=O)[nH]c12 -20.4%, CCOc1ccc(C(=O)c2ccc(O)c(O)c2O)cc1 -0.0109%, COc1ccc(CN2CCCC(n3cc(C(=O)N4CCCCC4)nn3)C2)c(OC)c1OC (configuration not stated) -20.2%, O=C(O)/C=C1\CCCc2ccccc2[C@H]1O -6.9%, Cc1nc2cnc(N3CCOCC3)nc2n(CCC#N)c1=O -1.48%, C[C@]12CC[C@@H]3c4ccc(O)cc4CC[C@H]3[C@@H]1C[C@@H](O)[C@@H]2O 10.1%, CC[C@@H](C)[C@H](NS(=O)(=O)c1cccc2ccccc12)C(=O)N[C@H](C=O)Cc1c[nH]c2ccccc12 -17.9%, CN(C)CCCO[C@@H]1[C@H]2OC(C)(C)O[C@H]2O[C@@H]1[C@H](O)CO -29.4%, COc1cc(=O)n2c(c1C(=O)NCc1ccco1)CCN(C(=O)c1c(F)ccc(F)c1F)CC2 5.07%, COc1ccccc1CNc1ncnc2ccc(-c3cccnc3)cc12 5.82%, CCCCN1CCCC1C(=O)Nc1c(C)cc(C)cc1C (configuration not stated) -21.2%, COc1ccccc1-c1ccc(C(=O)N2CCC(N3CCc4ccccc4C3)CC2)c(N(C)CC2COCCO2)n1 (configuration not stated) -11.7%, CC[N+](CC)(CC)CCC(O)(c1ccccc1)C1CCCCC1 (configuration not stated) 5.6%, CC(C)C(NS(C)(=O)=O)c1nnc2n1CCN(Cc1ccc3cccnc3c1)CC2 (configuration not stated) -7.22%, CC1(C)OC(=O)C=C[C@@]2(C)C1C[C@@H](O)[C@]1(C)C2CC[C@@]2(C)C(c3ccoc3)OC(=O)[C@H]3O[C@]321 (some centres not stated) -9.01%, CCCCC(=O)O[C@]1(C(=O)CO)CC[C@H]2[C@@H]3CCC4=CC(=O)CC[C@]4(C)[C@H]3[C@@H](O)C[C@@]21C -2.81%, Cc1noc(NS(=O)(=O)c2ccc(N)cc2)c1C -4.03% [middle of 4 runs], Cn1c(=O)c(-c2ccc(F)cc2)nc2cncnc21 -3.2%, CCc1cccc2c3c([nH]c12)C(CC)(CC(=O)O)OCC3 (configuration not stated) -4.81% and 0.321% and -36.7%, Cc1nc2cnc(Oc3cccc(Cl)c3)nc2n(CCC#N)c1=O -9.57%, CCOC(=O)[C@H](CS)NCCN[C@@H](CS)C(=O)OCC -5.28%, COC(=O)c1cn([C@@H]2C[C@@H](C(=O)Nc3cccc(SC)c3)N(C3CCCC3)C2)nn1 -18.7%, COc1ncc2nc(-c3ccc(Cl)cc3)c(=O)n(CCc3ccccc3)c2n1 0.414%, CCn1c(-c2ccccc2F)nc2cc(NC(C)=O)cc(C(=O)N(C)Cc3ccccn3)c21 -13.5%, COc1cc(=O)n2c(c1C(=O)NC(C)c1ccco1)CCN(Cc1ccccc1C(F)(F)F)CC2 (configuration not stated) -2.23%, Cn1cc(S(C)=O)c(=O)c2ccc(F)cc21 (configuration not stated) -0.393%, COc1ccccc1/C=c1/[nH]c(=O)/c(=C\c2ccccc2OC)[nH]c1=O -6.37%, CC1=C(C(=O)OCc2ccccc2)N2C(=O)[C@@H](NC(=O)OCc3ccccc3)[C@H]2SC1 -3.49%, COCC(=O)Nc1cc(C(=O)NC2C3CC4CC2CC(O)(C4)C3)cc2nc(-c3ccccc3)n(C)c12 (configuration not stated) -1.9%, Nc1nc2c(nc(Cl)n2C2OC(CO)C(O)C2O)c(=O)[nH]1 (configuration not stated) -7.68%, CN1CCN(c2ncc3nc(-c4cn(C)c5ccccc45)c(=O)n(C)c3n2)CC1 -14.6%, COCC(=O)Nc1cc(C(=O)N2CCN(C)C(c3ccccc3)C2)c2c(c1)nc(-c1ccncc1)n2C (configuration not stated) -2.17%, COc1ccc(CN2CCCC(n3cc(C(=O)N4CCCCC4)nn3)C2)cc1OC (configuration not stated) -3.11%, CN(C)CC/C=C1\c2ccccc2COc2ccccc21 -12.4% and -10.9% and -8.75%, Cc1cc(-c2ccnc(-n3ncc(C(=O)NCC4COCCO4)c3C)n2)c(C)s1 (configuration not stated) -7.47%, Cc1cnccn1 -9.37%, CC(C)NC(=O)N1CCCC2(CCN(C(=O)c3ccncc3)CC2)C1 -31.8%, O=S(c1cc(Cl)cc(Cl)c1O)c1cc(Cl)cc(Cl)c1O -13.2%, O=C(O)CCC/C=C\C[C@@H]1C(/C=C/[C@@H](O)COc2cccc(C(F)(F)F)c2)[C@@H](O)C[C@@H]1O (some centres not stated) 6.27%, CCCCC[C@H](O)/C=C/C=C\C=C\C=C\[C@@H](O)[C@@H](O)CCCC(=O)O 2.98%, CC[C@H](NC(C)C)[C@H](O)c1ccc(O)c2[nH]c(=O)ccc12 -19.4% and 4.05%, CCCCCCCC(=O)O 11.1%, O=C(O)CNC(=O)c1ccccc1I -3.11%, Cn1cc(/C=C/c2ccc3ccccc3n2)c2ccccc21 -30%, Cc1nc2cnc(N(C)C)nc2n(CCc2ccccc2)c1=O 0.0357%, CCCn1c(=O)c2[nH]c(-c3ccc(S(=O)(=O)O)cc3)nc2n(CCC)c1=O -37.3%, COc1cc(=O)n2c(c1C(=O)N(C)Cc1cscn1)CCN(Cc1c(C)[nH]c3ccccc13)CC2 -8.83%, O=C1N(c2ccccc2)c2ccccc2C1(Cc1ccncc1)Cc1ccncc1 -12.3% and -11.3% and -9.62%, Cc1cnc(C)c(-c2cc(F)cc3c2OC(CNC(=O)Cc2c(C)noc2C)C3)n1 (configuration not stated) -5.32%, COc1ccc(-c2coc3c(OC)c(OC)cc(O)c3c2=O)cc1 3.76%, C=C1[C@@H](O)CN(Cc2ccc(OC)cc2)S1(=O)=O -3.65%, COCCn1c(=O)c(-c2cc(F)cc(F)c2)nc2cnc(Oc3ccccc3)nc21 -11.9%, CC(C)COC(=O)c1ccc(N)cc1 -20%, COc1ccc(C(=O)c2ccc(O)cc2)c(O)c1O -11.3%, CCC1CN(CCNC(=O)c2cc(C(C)C)nn2C)Cc2cc(OC)ccc2O1 (configuration not stated) -3.89%, CCN(CC)C1CCN(C(=O)c2cnn(-c3ncc4c(n3)-c3ccccc3CCC4)c2COC)C1 (configuration not stated) 20.6%, CCCCCCCC/C=C\CCCCCCCC(=O)OC[C@@H](O)[C@H]1OC[C@H](O)[C@H]1O -13.9%
